PubChem BioAssay AID651820 (National Center for Advancing Translational Sciences (NCATS), 2012)
Several values for one entry are separate records, joined by “and”; a condition that tells them apart may be missing. Equal values may be shown once. About 12,000 (3.5%) of roughly 340,000 compounds were called active. Inconclusive means that the source gave no clear call. Such entries were picked first, then a sample of the others. Calls follow the shape of the dose curve; as a rule, active = well fitted inhibition curve with a large enough effect; inconclusive = small, poorly fitted or top-dose-only effect, or another doubt; inactive = no such curve, though single readings can be large or run the other way. Potencies of inconclusive entries are doubtful fits and often do not repeat.

Experiment: qHTS Assay for Inhibitors of Hepatitis C Virus (HCV)
Settings: Huh7.5.1 HCVcc-Cre (HCVcc is cell-culture hepatitis C virus) infection, luciferase reporter, 44 h; activity change, negative = inhibition: at 41.8 µM (top of the series) unless noted
Procedure, shortened: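 A cell-based infection assay in which seeded cells (1,000 per well) receive test compound after 4 h, are inoculated with HCVcc-Cre at approximately 0.5 moi, and are incubated 44 h before luminescence detection.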
% is scaled to controls: 0 for no effect and ±100 for the full control effect; potency is read from the fitted curve at half-maximal effect; tags tell the direction and shape of the fitted curve.

Structure (SMILES) | Potency | activity change, negative = inhibition
CCc1ccc(OCC(=O)NCCN(C)C)c(Br)c1 | inconclusive: 7.94 µM [inhibitor, partial curve, poor fit] | 
COc1cc(NC(=O)c2ccc(-c3csc(C)n3)cc2)c(OC)cc1Cl | inconclusive: 3.55 µM [inhibitor, full curve] | 
CSc1scc2c1-c1nc(SCC(=O)C(C)(C)C)ncc1CC2 | active: 8.91 µM | 
CCCCn1c(N)c(N(CCOC)C(=O)CN(C)S(=O)(=O)c2ccc(C)cc2)c(=O)[nH]c1=O |  | inactive: -1.06% [at 8.37 µM]
CCOC(=O)C1CCN(C(=O)c2ccc(N(C)S(=O)(=O)c3ccc(OC)cc3)cc2)CC1 | inconclusive: 31.6 µM [inhibitor, single point] | 
Brc1ccc2c(c1)OCCOCCOc1cc(Br)ccc1OCCOCCOCCO2 | inconclusive: 0.794 µM [inhibitor, full curve, poor fit] | 
O=C(N/N=C/c1ccc(-c2ccc([N+](=O)[O-])cc2)o1)[C@H]1C[C@@H]1c1ccccc1 | inconclusive: 1.41 µM [inhibitor, single point] | 
CCN(CC)C(CNC(=O)CSc1nnnn1-c1cccc(F)c1)c1ccco1 (stereo not drawn) | active: 25.1 µM | 
Oc1cccc(/C=N/Nc2ccc(Cl)nn2)c1O | active: 2.51 µM | 
O=C(CSc1ncn[nH]1)Nc1cccc(S(=O)(=O)N2CCCCCC2)c1 | inconclusive: 14.1 µM [inhibitor, partial curve] | 
Cc1cc(OCC(=O)N2CCN(c3ccccn3)CC2)c(C)cc1Br | inactive | 
CC1CCN(S(=O)(=O)c2ccc(C(=O)Nc3nnc(-c4ccccn4)o3)cc2)CC1 | inactive | 
O=C(CSc1ccc(-c2ccco2)nn1)c1ccccc1 | inactive | 
CCCC1(c2ccccc2)NC(=O)N(CC(=O)Nc2sc(-c3ccccc3)cc2C(=O)OCC)C1=O (stereo not drawn) | inactive | 
Oc1ccccc1-c1nc(NCCN2CCOCC2)c2ccccc2n1 | active: 7.08 µM | 
Cc1cc(C)c(/C=N/NC(N)=O)c(C)c1/C=N/NC(N)=O | inactive | 
COc1ccc2[nH]c3c(c2c1)CCN1C(=O)C(CC(=O)NCCC2=CCCCC2)C[C@H](C(=O)N(C(C)C)C(C)C)[C@@]31C (stereo partly drawn) | inconclusive: 7.08 µM [inhibitor, partial curve] | 
Cc1cc(C)cc(OCC(=O)Nc2nc(-c3ccccn3)cs2)c1 | inconclusive: 35.5 µM [inhibitor, partial curve] | 
CN1CCN(c2ccc(Cl)cc2NC(=O)/C=C/c2cccc(F)c2)CC1 | inconclusive: 11.2 µM [inhibitor, partial curve] | 
COC(=O)c1c(N)sc2c1CCN(c1ncc(C(F)(F)F)cc1Cl)C2 | inconclusive: 20 µM [inhibitor, single point] | 
CSCC[C@H](NC(=O)[C@@H]1Cc2ccccc2CN1)C(=O)Nc1ccc2c(c1)OCO2 | inactive | 
Cc1ccc(C(CNS(=O)(=O)c2ccc(Br)cc2)N2CCN(C)CC2)cc1 (stereo not drawn) | active: 8.91 µM | 
COC(=O)c1[nH]c2ccc(F)cc2c1NS(=O)(=O)c1ccc(F)c(C)c1 | inactive | 

Structure (SMILES) | Potency | activity change, negative = inhibition
O=C(Nc1ccc(-n2nncc2-c2ccco2)cc1)c1cccc(F)c1 | inconclusive: 6.31 µM [inhibitor, partial curve] | 
COc1cc(C(=O)Nc2ccc3c(c2)ncn3C(C)(C)C)cc(OC)c1OC | active: 12.6 µM | 
COc1ccc(C(=O)N[C@H](C(=O)OCc2nc3ccsc3c(=O)[nH]2)C(C)C)cc1 | inconclusive: 3.16 µM [inhibitor, single point] | 
CCN(CC)S(=O)(=O)c1ccc(N2CCCC2)c(NC(=O)c2ccc(OC)cc2OC)c1 | inconclusive: 12.6 µM [inhibitor, partial curve] | 
COc1ccc(S(=O)(=O)Nc2ccccc2OC)cc1NC(=O)Cc1cccs1 | inconclusive: 31.6 µM [inhibitor, single point] | 
COc1ccc(O)c(/C=c2/sc3nc4cc(C)c(C)cc4n3c2=O)c1 | inconclusive: 12.6 µM [inhibitor, partial curve] | 
O=C(CC1CCCC1)N1CCN(S(=O)(=O)c2cccc(F)c2)CC1 | inactive | 
O=C1c2sc3nc4ccccc4n3c2C(=O)N1c1ccccc1Cl | inconclusive: 22.4 µM [inhibitor, single point] | 
O=S(=O)(c1ccc(S(=O)(=O)N2CCCC2)cc1)N1CCCCC1 | inconclusive: 2.82 µM [inhibitor, single point] | 
Cc1ccc2[nH]nc(C(=O)N3CCCC(C(=O)c4ccc(Cl)cc4)C3)c2c1 (stereo not drawn) | inconclusive: 0.501 µM [inhibitor, full curve, poor fit] | 
COc1nccnc1NS(=O)(=O)c1ccc(N/C=C2\CCCCC2=O)cc1 | inactive | 
Cc1cccc(NC(=O)CN(CC2CCCO2)C(=O)c2oc3ccc(F)cc3c2C)c1C (stereo not drawn) | inconclusive: 12.6 µM [inhibitor, partial curve] | 
Cc1cc(N2CCCN(C)CC2)nc2cc(Cl)ccc12 | inconclusive: 22.4 µM [inhibitor, single point] | 
NC(=O)CC(NC(=O)Cc1ccc(Cl)cc1)c1ccc(NC2CCCCCC2)c([N+](=O)[O-])c1 (stereo not drawn) | inconclusive: 3.16 µM [inhibitor, single point] | 
O=C(Nc1ccc(S(=O)(=O)NCCc2ccccc2)cc1)c1ccc(Br)o1 | inconclusive: 31.6 µM [inhibitor, single point] | 
COc1cccc(CN2CCN(Cc3c(C)nn(C(C)C)c3C)CC2CCO)c1 (stereo not drawn) | inactive | 
CCCCn1c(SCC(=O)N2CCC(C(=O)OCC)CC2)nc2cc(S(N)(=O)=O)ccc21 | inactive and inconclusive: 501 nM [inhibitor, partial curve, poor fit] | 
COC(=O)c1ccccc1NC(=O)c1noc2c1CCCC2 | inconclusive: 31.6 µM [inhibitor, single point] | 
Cc1ccc(/C=C/C(=O)OC(C)C(=O)NC2CCCCC2C)o1 (stereo not drawn) | inconclusive: 35.5 µM [inhibitor, single point] | 
CC(C)NC(=O)CCc1nc2cccnc2n1-c1ccccc1 | inactive | 
CC1CCN(C(=O)CN(c2ccc(Oc3ccccc3)cc2)S(C)(=O)=O)CC1 | inconclusive: 31.6 µM [inhibitor, single point] | 
COc1ccc(NC(=O)CCCSc2nc(-c3ccco3)cc(C(F)(F)F)n2)cc1OC | active: 15.8 µM | 
Cc1cccc(-n2cc(-c3ccccc3)c3c(N4CCOCC4)ncnc32)c1 | active: 3.16 µM | 

Structure (SMILES) | Potency | activity change, negative = inhibition
CN1CCN(c2nc(-c3ccc(Cl)cc3)cc(=O)[nH]2)CC1 | inactive | 
CCOc1ccc(NC(=O)CSc2nc3ccccc3c(=O)n2CCCC(=O)N2CCCC2)cc1 | inconclusive: 35.5 µM [inhibitor, partial curve, poor fit] | 
COc1ccccc1/C=C/C=N/NC(=O)c1cccs1 | inconclusive: 31.6 µM [inhibitor, single point] | 
c1ccc2sc(C3CCN(Cc4nnnn4Cc4ccc5c(c4)OCO5)CC3)nc2c1 | inconclusive: 12.6 µM [inhibitor, partial curve] | 
Cc1ccc(C)c(CN2CCC(CNC(=O)Nc3ccc(Cl)cc3)CC2)c1 | inactive | 
CC(=O)c1sc(Nc2ccccn2)nc1C | inactive | 
O=C(COc1ccc(Cl)cc1)Nc1cccc(S(=O)(=O)NC2=NCCCCC2)c1 | inconclusive: 11.2 µM [inhibitor, partial curve, poor fit] | 
COc1ccc(CN(C)CC(=O)Nc2cc(OC)c([N+](=O)[O-])cc2C)c(OC)c1 | inconclusive: 12.6 µM [inhibitor, single point] | 
COc1ccc(S(=O)(=O)Nc2ccc(S(=O)(=O)Nc3ccc(F)cc3)cc2)cc1C | inconclusive: 31.6 µM [inhibitor, single point] | 
CCCNC(=O)c1ccc2c(c1)S(=O)(=O)c1ccccc1C2=O | inconclusive: 12.6 µM [inhibitor, single point] | 
O=C(CSc1ccc(-c2ccco2)nn1)Nc1ccc(F)cc1F | inconclusive: 22.4 µM [inhibitor, single point] | 
Cc1ccc(OCC(=O)Nc2ccc(N3CCN(S(C)(=O)=O)CC3)cc2)cc1C | inactive | 
CCOCCCNC(=S)NCCCNc1nc2c(C)c(C)ccc2cc1C#N | inconclusive: 2 µM [inhibitor, full curve] | 
O=C(COC(=O)/C=C/c1ccccc1[N+](=O)[O-])NCc1ccco1 | inactive | 
COc1ccccc1CN1CCC(n2nccc2NC(=O)CCOc2ccccc2)CC1 | inconclusive: 8.91 µM [inhibitor, partial curve, poor fit] | 
CCCN(CCC)C(=O)c1cc2c(=O)[nH]c3ccc(C)cc3c2s1 | active: 11.2 µM | 
CCOc1ccccc1NC(=O)c1ccccc1N(C)S(=O)(=O)c1ccc(C)cc1 | inconclusive: 28.2 µM [inhibitor, single point] | 
COc1cc(/C=N/NC2=NS(=O)(=O)c3ccccc32)cc(OC)c1OC | inconclusive: 5.62 µM [inhibitor, single point] | 
Cc1occc1-c1nnc(SCC(=O)c2c(N)n(C3CC3)c(=O)[nH]c2=O)n1C | inactive | 
CCOc1cc(C(=O)Nc2ccc(NC(C)=O)cc2)ccc1OCC(=O)N1CCCCC1 | inconclusive: 12.6 µM [inhibitor, partial curve] | 
c1cc2c(cc1NC1=NCCO1)CCCC2 | inconclusive: 7.94 µM [inhibitor, partial curve] | 
CC(C)(C)c1ccc(OCC(=O)Nc2cccc(S(=O)(=O)NC3=NCCCCC3)c2)cc1 | inconclusive: 11.2 µM [inhibitor, partial curve] | 
